# Measurements published in PubChem BioAssay AID1745853 (National Center for Advancing Translational Sciences (NCATS), 2022).
# This is one part of the list. The main result of the screen is listed elsewhere. These columns were measured beside it and carry no call.
# What was measured:
# Test in all cases: Primary Screen for Target Class Profiling of Small Molecule Inhibitors of Methyltransferases
# [1] = biological target: Glycine N-methyltransferase (Homo sapiens) (UniProt Q14749); conditions: purified enzyme, MTase-Glo SAH luminescence; measured here: GNMT inhibition; at 40 µM; stronger effect = lower value
# From the text: (§1) PI: Matthew D. Hall Ph.D. and Quinlin M. Hanson Ph.D.
# (§2) National Center for Advancing Translational Sciences (NCATS)
# (§3) National Institute of Health (NIH), Rockville, MD
# (§4) Target class profiling (TCP) is a chemical biology approach amenable to investigating understudied biological targets. TCP is achieved by developing a generalizable assay platform and applying it to screen a curated set of compound libraries against representative members of a target class. Small molecule methyltransferases (SMMTase) are a subclass of methyltransferase that act on metabolites to modulate signaling pathways, metabolize xenobiotics, or balance the available methyl pool. We screened four curated libraries totaling 27,574 unique compounds against the SMMTases nicotinamide N-methyltransferase (NNMT), phenylethanolamine N-methyltransferase (PNMT), histamine N-methyltransferase (HNMT), glycine N-methyltransferase (GNMT), catechol O-methyltransferase (COMT), and guanidinoacetate N-methyltransferase (GAMT). The data generated by this TCP can be leveraged for informed tool molecule development. For example, in the associated publication we identified a chemotype of HNMT-selective inhibitors. Additionally, we identified a putative SMMTase-selective inhibitor with potential as a tool molecule for studying broader methyltransferase biology.
# (§5) High-through put screening assays were developed at the National Center for Advancing Translational Science (NCATS) for the enzymes NNMT, PNMT, HNMT, GNMT, COMT, and GAMT. Enzymatic activity was measured as a function of SAM cofactor conversion using the MTase Glo kit (Promega) for all enzymes. All assays were performed in 1536-well format with substrates and SAM concentrations at KM values. Enzyme concentration and assay timing were optimized for 10-20% SAM conversion. Initial screening of 27,574 compounds was done as single-point assays using the highest compound concentration (40 uM). […] These compounds were replated in 11-point dose response and assayed against NNMT, PNMT, HNMT, GNMT, COMT, GAMT, and a counter-assay. The IC50 and efficacy (maximal response) values were determined for each dose-response curve. These values are also accounted for in the area under the curve (AUC) values.
# (§6) PROTOCOL TABLE (as described by Inglese J, Shamu CE and Guy RK. 2007)
# (§7) SEQUENCE No. (e.g., 1, 2, 3, etc.); […] (e.g., Cells, Incubation, Reagent, etc.); VALUE; DESCRIPTION.
# (§8) 1; Reagent; 2 uL; SMMTase Enzyme (2x) in reaction buffer, columns 1- 48.
# (§9) 2; Reagent; 1 uL; SAM (4x) in reaction buffer, columns 1-48.
# (§10) 3; Controls; 23 nL; DMSO in column 4; sinefungin in DMSO (0 uM - 40 uM) in 7-point 1:2 dilution series (n = 2) in column 2.
# (§11) 4; Compounds; 23 nL; Columns 5-48.
# (§12) 5; Reagent; 1 uL; Substrate (4x) in reaction buffer, columns 2-48.
# (§13) 6; Time; 20-30 min; Incubation.
# (§14) 7; Reagent; 1 uL; MTase-Glo reagent (5X), columns 1-48.
# (§15) 8; Time; 30 min; Incubation.
# (§16) 9; Reagent; 5 uL; MTase-Glo Detection reagent, columns 1-48.
# (§17) 10; Time; 30 min; Incubation, luminescence evolution.
# (§18) 11; Detection; Luminescence; ViewLux uHTS Microplate Imager (PerkinElmer).
# (§19) NOTES (numbers refer to Sequence numbers above)
# (§20) 1, 2, 5. White Medium Binding Greiner 1536-well plates (Cat #789175-F, Greiner Bio-One, Monroe, NC); Reaction buffer: 50 mM Tris, pH 8.0, 3 mM MgCl2, 1 mM EDTA, 50 mM NaCl, 1 mM DTT, and 0.1 mg/mL BSA. Evaporation was prevented by covering assay plates with metal lids containing holes to allow gas diffusion.
# (§21) 1. Six SMMTase were profiled: HNMT, GNMT, PNMT, COMT, NNMT, GAMT
# (§22) 5. The corresponding substrate was used for each enzyme: HNMT - 5.3 uM Histamine; GNMT - >500 uM Glycine; PNMT - 16.2 uM Norephinephrine; COMT - 13.7 uM Norephinephrine; NNMT - 3.8 uM Nicotinamide; GAMT - 2.5 uM Guanidinoacetate.6, 8, 10. Room temperature
# (§23) 6. Final reaction conditions: 10 nM COMT, 5 uM SAM, 15 uM norepinephrine, 50 mM Tris, pH 8.0, 3 mM MgCl2, 1 mM EDTA, 50 mM NaCl, 1 mM DTT, and 0.1 mg/mL BSA; refer to tables 2 and S1 for specific timing.
# 8. […]
# [2] = biological target: Guanidinoacetate N-methyltransferase (Homo sapiens) (UniProt Q14353); conditions: purified enzyme, MTase-Glo SAH luminescence; measured here: GAMT inhibition; at 40 µM; stronger effect = lower value
# From the text: as §1, §2, §3, §4, §5, §6, §7, §8, §9, §10, §11, §12, §13, §14, §15, §16, §17, §18, §19, §20, §21, §22, §23
# 8. […]
# [3] = biological target: Histamine N-methyltransferase (Homo sapiens) (UniProt P50135); conditions: purified enzyme, MTase-Glo SAH luminescence; measured here: HNMT inhibition; at 40 µM; stronger effect = lower value
# From the text: as §1, §2, §3, §4, §5, §6, §7, §8, §9, §10, §11, §12, §13, §14, §15, §16, §17, §18, §19, §20, §21, §22, §23
# 8. […]
# [4] = biological target: Nicotinamide N-methyltransferase (Homo sapiens) (UniProt P40261); conditions: purified enzyme, MTase-Glo SAH luminescence; measured here: NNMT inhibition; at 40 µM; stronger effect = lower value
# From the text: as §1, §2, §3, §4, §5, §6, §7, §8, §9, §10, §11, §12, §13, §14, §15, §16, §17, §18, §19, §20, §21, §22, §23
# 8. […]
# [5] = biological target: Phenylethanolamine N-methyltransferase (Homo sapiens) (UniProt P11086); conditions: purified enzyme, MTase-Glo SAH luminescence; measured here: PNMT inhibition; at 40 µM; stronger effect = lower value
# From the text: as §1, §2, §3, §4, §5, §6, §7, §8, §9, §10, §11, §12, §13, §14, §15, §16, §17, §18, §19, §20, §21, §22, §23
# 8. […]
# % is scaled to controls: 0 for no effect and ±100 for the full control effect.
Structure (SMILES),"activity change, negative = inhibition [1] [%]","activity change, negative = inhibition [2] [%]","activity change, negative = inhibition [3] [%]","activity change, negative = inhibition [4] [%]","activity change, negative = inhibition [5] [%]"
N#Cc1ccnc(-c2nnc3ccc(NC4CC4)nn23)c1,-9.13,-1.36,-35.8,-9.17,-7.47
Cc1ccc(C)c(NS(=O)(=O)c2cc3c(cc2C)n(C)c(=O)n3C)c1,10.2,2.66,6,-2.11,5.3
COC(=O)[C@@H](Cc1c[nH]c2ccccc12)NC(=O)[C@@H]1CN(C(=O)Nc2ccccc2)CCN1C(=O)NC(C)C,-2.79,0.776,-0.924,0.763,17.7
CCCN1C(=O)c2c(C(=O)NCCc3ccc(OC)cc3OC)ncn2CC1(C)C(=O)NCc1ccc(C)cc1 (stereo not drawn),1.14,3.01,9.32,9.03,8.74
CC1(C(=O)NC2CCCCCCC2)Cn2c(ccc2-c2ccco2)C(=O)N1Cc1ccccc1Cl (stereo not drawn),-8.57,2.92,-3.17,-13.1,-6.21
O=C1OC[C@@H]2CCN(Cc3ccc(C(F)(F)F)cc3)Cc3ccc(F)cc3N12,157,-9.14,-6.44,-14.4,-9.21
O=C(OCCN1CCOCC1)C1(c2ccccc2)CCCCC1,0.864,10.1,4.57,-5.58,10.7
CC(C)C[C@H](NC(=O)[C@H](Cc1ccccc1)NC(=O)c1cnccn1)B(O)O,-1.76,0.569,10.7,-14.7,-4.77
O=C(c1ccc(C(F)(F)F)cc1)N1CC2CC(C1)[C@H]1CCCC(=O)N1C2 (stereo partly drawn),-1.52,-4.15,-2.18,-1.32,-2.73
CCc1ccc(NC(=O)CSc2nnc3n(CCc4ccccc4)c(=O)c4ccccc4n23)cc1,3.66,1.36,5.59,1.59,3
CCOCC(=O)N1CCC(Nc2cccn3ncnc23)CC1,-41.9,-22.2,-2.71,-5.76,-12.5
COc1ccc(C(=O)Nc2cnc(-c3ccc(Cl)cc3)nc2)cc1,-2.78,-2.76,-1.97,-4.79,-7.49
CC(C)CCNC(=O)C1(C)Cn2c(cc3ccccc32)C(=O)N1Cc1cccs1 (stereo not drawn),5.43,0,4.82,-2.34,0.47
CC[C@H]1OC(=O)[C@H](C)[C@@H](O[C@H]2C[C@@](C)(OC)[C@@H](O)[C@H](C)O2)[C@H](C)[C@@H](O[C@@H]2O[C@H](C)C[C@H](N(C)C)[C@H]2O)[C@@](C)(O)C[C@@H](C)[C@@H]2N[C@@H](COCCOC)OC([C@H]2C)[C@]1(C)O,1.02,3.92,10.1,-9.91,5.11
CCOC(=O)c1ccc(NC(=O)CN2CCCCC2)cc1,-0.126,-3.08,-2.84,-12,0.438
COc1cc(C2Oc3c(OC)cc(CCCO[C@@H]4O[C@H](CO)[C@@H](O)[C@H](O)[C@H]4O)cc3C2CO)ccc1O (stereo partly drawn),-1.27,-7.62,6.62,-17.3,0.45
CN1C(=O)c2cc(C(=O)NC3CCCCC3)nn2CC1(C)C(=O)NCc1ccccc1 (stereo not drawn),-4.69,-13.5,-1.28,-5.74,-6.63
O=C1C(c2c(O)[nH]c3ccccc23)=Nc2ccccc21,7.77,5.3,6.81,-4.62,5.63
Cc1ccccc1-c1[nH]nc2ncc(-c3c(C)noc3C)nc12,-32.7,-29,-36.8,-51.8,-0.278
CC(C)N(CCCCOCC(=O)O)c1cnc(-c2ccccc2)c(-c2ccccc2)n1,,11.1,,-16.7,4.13
Cc1cccc(N2CCN(C(=O)CCc3nnc4n(Cc5ccccc5)c(=O)c5ccccc5n34)CC2C)c1 (stereo not drawn),-0.357,0,1.24,-3.72,-0.641
Cc1cc(C(=O)N2CCC3(CC2)CC(O)CCO3)c(C)o1 (stereo not drawn),-7.45,-3.29,-1.08,-5.66,8.63
CNC(=O)c1cc(Oc2ccc(NC(=O)c3cccc(C(F)(F)F)c3)cc2)ccn1,-1.09,8.73,11.8,-9.44,0.421
CS(=O)(=O)c1ccc(C(=O)Nc2ccc(Cl)c(-c3ccccn3)c2)c(Cl)c1,-0.895,-2.5,-3.73,-23.4,-12.4
Cc1nc([C@H]2CCNC[C@H]2NC(=O)C2CC2)n[nH]1,-0.795,-2.97,0.338,-8.26,-2.69
CC(=O)Nc1c2n(c3ccccc13)CC(C)(C(=O)NC1CCCCC1)N(Cc1ccccc1F)C2=O (stereo not drawn),-2.92,-1.39,0.764,-12.5,0.04
COC(=O)c1ncn2c1C(=O)N(c1ccc3c(c1)OCCO3)C(C)(C(=O)NCCCOC(C)C)C2 (stereo not drawn),3.28,2.36,13.5,8.21,11.2
C=CCn1cc(CN2CCOC(Cc3cccc4ccccc34)C2)c(C)n1 (stereo not drawn),0.226,1.57,0.928,-6.98,-0.356
O=C1N[C@@H](Cc2cccs2)C(=O)N2CC[C@H](NS(=O)(=O)c3cccs3)C[C@@H]12,-1.07,0.9,1.4,-2.63,3.02
CN1CCN(S(=O)(=O)c2ccc(-c3cnc(N)c(C(=O)Nc4cccnc4)n3)cc2)CC1,-5.77,-7.97,-4.47,-17.4,-16.5
